# From the supplement of paper PMC3724861
# Some of the results follow.
# Tested on: T1, Caupolican (Caup) homeodomain DNA-binding domain
# T1 sequence: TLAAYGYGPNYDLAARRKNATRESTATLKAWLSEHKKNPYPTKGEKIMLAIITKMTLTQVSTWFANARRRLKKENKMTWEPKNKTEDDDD
# Test: PBM E-score (8-mer, recovered from the published 9-mer minima) (E-score (dimensionless, -0.5 to 0.5)); Drosophila protein; higher = stronger relative binding preference, active = 0.31 or more
# Method in brief: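 Caup's homeodomain DNA-binding domain (residues 214-303) was produced by in vitro transcription and translation and applied at 100 nM to custom-designed protein binding microarrays. Each value is an enrichment score giving relative binding preference for a short DNA word; higher means stronger. Published 9-mer scores were the minimum of their two constituent 8-mer scores, and the 8-mer values were recovered from those minima. A cutoff of 0.31 marks candidate binding sequences.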
row,Sequence,PBM E-score
1,CGAATTGA,inactive: 0.0175
2,ATCGAGAG,inactive: -0.099
3,AGTGAGCA,inactive: 0.0293
4,TATCATAA,inactive: 0.216
5,CGAACCGC,inactive: -0.165
6,CGACGCGC,inactive: -0.116
7,GACGCGCA,inactive: -0.0964
8,AATGACGC,inactive: 0.0746
9,CGAGGCGC,inactive: -0.252
10,AACACCGG,inactive: 0.0729
11,AACCGGGG,inactive: -0.215
12,AGGGGTAA,inactive: -0.0827
13,CCTGTAGC,inactive: 0.0876
14,GCCTTAAC,inactive: -0.0115
15,CTCTGGGC,inactive: -0.214
16,ACCCTACC,inactive: -0.0635
17,TACGATGA,inactive: 0.0856
18,AGAGCGTA,inactive: -0.00417
19,CTTGTGCA,inactive: 0.18
20,CGTTGCAC,inactive: -0.0617
21,GATATCAC,inactive: 0.142
22,CGCACCGA,inactive: -0.0712
23,AATTCGAC,inactive: -0.0112
24,ACAGTTCG,inactive: 0.0719
25,CCGTTTCG,inactive: -0.0696

row,Sequence,PBM E-score
1,CCACTGAC,inactive: -0.103
2,TGGACAAA,inactive: 0.137
3,AATCAGAA,inactive: 0.0342
4,GGACTGAC,inactive: -0.065
5,AATTTGAG,inactive: 0.0364
6,ATCTCCAT,inactive: -0.0205
7,ATTTATTA,inactive: 0.159
8,TTTGAAAA,inactive: 0.105
9,ACAAGCTC,inactive: 0.174
10,CGAAGGAC,inactive: -0.134
11,GGCCAGCC,inactive: -0.303
12,CACTGTCG,inactive: -0.00412
13,GACTAGTA,inactive: 0.181
14,ACTATTTC,inactive: 0.118
15,ACCCCCCG,≥ -0.261
16,CTATTCCA,inactive: 0.057
17,AGCAACTG,inactive: 0.0583
18,ACTAAAAT,inactive: 0.00661
19,TCGGACGA,≥ 0.0284
20,CAGAAGAA,inactive: -0.128
21,AAACTGTT,inactive: 0.148
22,AACTCGTG,inactive: 0.0974
23,AACATTCT,inactive: 0.198
24,CTGGACAC,inactive: 0.127
25,GTCCTGAA,inactive: -0.0522

row,Sequence,PBM E-score
1,AATCCAGA,inactive: 0.0913
2,ATGCGGCG,inactive: -0.141
3,AGCCCGGG,inactive: -0.238
4,GCGGGGTA,inactive: -0.169
5,AGGATCAT,inactive: 0.0598
6,AATCGCCC,inactive: -0.222
7,CTAAATAA,inactive: 0.181
8,GGTGAGGA,inactive: -0.185
9,TACAATGA,inactive: 0.266
10,ATTACCCC,inactive: -0.0955
11,CCGCGACA,inactive: 0.0973
12,GCAATCAA,≥ 0.14
13,GCTACTAC,inactive: 0.0967
14,ATTTGGAC,inactive: 0.134
15,TAGCAAGA,inactive: 0.142
16,AAGCACGT,≥ 0.0899
17,CGGTCATA,inactive: -0.0654
18,CCTAGCAC,inactive: -0.0903
19,AATGACAC,inactive: 0.277
20,ATATTAGC,inactive: 0.157
21,ATAGCGGC,inactive: -0.136
22,AGGTCACG,inactive: -0.0767
23,GGTAGGAC,inactive: -0.125
24,CCCGCCTC,inactive: -0.15
25,CCCGGAAG,inactive: -0.276

row,Sequence,PBM E-score
1,AGACGCTA,inactive: -0.084
2,AATGGCAA,inactive: -0.0138
3,ACCACCGC,inactive: -0.0681
4,CAATTACA,active: 0.334
5,CATAGAGA,inactive: 0.113
6,CCGGACAG,inactive: 0.0176
7,CGGAAATC,inactive: -0.0888
8,ACGTTCAC,inactive: 0.0125
9,CTGTACAC,inactive: 0.284
10,ACTATAGC,inactive: 0.0259
11,CCATCTAC,inactive: -0.0737
12,CCAGATGG,inactive: -0.168
13,TAAGATTA,inactive: 0.0251
14,CTCGACGC,inactive: -0.0524
15,GCTGCTCA,inactive: -0.0422
16,ATGGATCG,inactive: -0.0232
17,CACAAGAG,inactive: 0.022
18,GAATGCAC,inactive: 0.0473
19,ACCCGCTC,inactive: -0.235
20,ATTAATGC,inactive: 0.0182
21,CGCAAAGA,inactive: -0.0403
22,GAAGCCAA,inactive: -0.168
23,CACCGCTG,inactive: -0.123
24,AGAACTAC,inactive: 0.18
25,TGCGCGCA,inactive: -0.0447

row,Sequence,PBM E-score
1,CTCACTCA,inactive: 0.0463
2,ATCCTTCC,inactive: -0.048
3,CGACAAGA,active: 0.317
4,ATGGCTCG,inactive: -0.0111
5,CAGCATGC,inactive: 0.00197
6,GGCACTCA,inactive: -0.101
7,ATAGGGAA,inactive: -0.0647
8,AAGTGGGT,inactive: -0.137
9,TGAGGAAA,inactive: 0.00643
10,CGTGAAGC,inactive: -0.189
11,ACCAACGT,inactive: 0.0687
12,AAGAGTAG,inactive: -0.0204
13,ACATTCGC,inactive: 0.0849
14,AAGCGCGT,inactive: -0.156
15,CAGTTAAG,inactive: 0.0884
16,CCGGACCC,inactive: -0.243
17,ACGGCTAC,inactive: -0.106
18,AGTTTCAG,inactive: -0.0628
19,ACCGGTCT,inactive: -0.11
20,ATGAAAAA,inactive: 0.0536
21,AAGGACGC,inactive: -0.116
22,TAGGTCGA,inactive: -0.0677
23,CCCTTATC,inactive: -0.052
24,GAGATGCC,inactive: -0.0386
25,ATCAATAC,inactive: 0.144

row,Sequence,PBM E-score
1,GACAACGA,inactive: 0.179
2,CGTTCGTC,inactive: -0.00872
3,CATCGTGA,inactive: -0.0534
4,ATAGTGGA,inactive: 0.071
5,GGCCCCTA,inactive: -0.291
6,CTTTAGCC,inactive: -0.125
7,CTGTGAAC,inactive: 0.131
8,ATCGGCAG,inactive: -0.147
9,ACTCACTA,inactive: 0.0626
10,ACAAACGG,inactive: 0.0483
11,AGAGCTCC,inactive: -0.257
12,GTAGGCTA,inactive: -0.0057
13,ATACAACA,active: 0.373
14,CGAGTAGC,inactive: -0.0374
15,GTAAGTAA,inactive: 0.141
16,GAGATAAC,inactive: 0.0299
17,GTAGATCA,inactive: 0.108
18,ATAGAGAC,inactive: 0.0227
19,ATACAGAC,inactive: 0.194
20,TACCTGGA,inactive: 0.0703
21,CGGCGACC,inactive: -0.261
22,AGCTTCAC,inactive: -0.0515
23,CTTATTCC,inactive: 0.00982
24,AGCGCCAC,inactive: -0.225
25,ATCAGGAG,inactive: -0.0418

row,Sequence,PBM E-score
1,GAGCTCCC,inactive: -0.288
2,ACTTAACC,inactive: 0.0525
3,TGAAGTAA,inactive: 0.0135
4,AAAAGATC,inactive: -0.053
5,ATCTACAA,inactive: 0.253
6,CACCATGG,inactive: -0.00796
7,GTAATCTA,≥ 0.259
8,ACGCGCTC,inactive: -0.0722
9,AATAAATT,inactive: 0.103
10,TGCTATAA,inactive: 0.051
11,AAGGGGAC,inactive: -0.0768
12,ACATGCGC,inactive: 0.288
13,CACATGCA,inactive: 0.166
14,ATAGTGAG,inactive: 0.0734
15,AAGTGGAC,inactive: -0.00011
16,AGCCTAAA,inactive: -0.0263
17,ATCAGGTA,inactive: 0.105
18,CCCTGTCG,inactive: -0.0227
19,CGCTCACC,inactive: -0.187
20,AGCACCTG,inactive: -0.0731
21,GCTATACC,inactive: -0.0691
22,AACGGTCC,inactive: -0.136
23,AAACAAGC,inactive: 0.254
24,AATGCCAA,inactive: 0.00972
25,ACCTGCCC,inactive: -0.157

row,Sequence,PBM E-score
1,AAGCTACC,inactive: 0.03
2,TACTCGCA,inactive: -0.0284
3,GTTACGGA,inactive: 0.0254
4,GACATCGA,inactive: 0.24
5,ATGTATTA,active: 0.373
6,CGCACCGC,inactive: -0.173
7,AACTCTTA,inactive: 0.0508
8,GGCCCGAC,inactive: -0.183
9,GGTCGTAA,inactive: 0.0682
10,CGCACGCC,inactive: -0.222
11,ATTTGTTC,inactive: 0.225
12,ACTCTCTG,inactive: -0.0214
13,AGGATTAG,inactive: 0.0867
14,CCGGGACA,inactive: 0.0605
15,GCTGTACC,inactive: 0.0813
16,AAGGTGCG,inactive: -0.106
17,CTTATCTC,inactive: -0.0307
18,AACGAGGG,inactive: -0.0492
19,CAGACCTG,inactive: -0.00642
20,AGGTTAAT,inactive: 0.0346
21,ACTCAGAA,inactive: 0.00328
22,GAGACAAC,inactive: 0.17
23,AAAGCAGT,inactive: -0.0257
24,GAGGTGAC,inactive: -0.0495
25,CCATCATA,inactive: 0.02

row,Sequence,PBM E-score
1,AGCTTACC,inactive: -0.108
2,AATGGCCC,inactive: -0.146
3,ACGTCACG,inactive: 0.0623
4,CGGAATGC,inactive: -0.175
5,ACATTCAA,inactive: 0.14
6,AGGCATAC,inactive: 0.0498
7,AATAACCT,≥ 0.142
8,GAGTGTCC,inactive: -0.0536
9,CGGATCCA,inactive: -0.0146
10,AGTAGTCA,inactive: 0.0805
11,AACACCAC,inactive: 0.179
12,GCTGAAAA,inactive: 0.0481
13,CTATGAAC,inactive: 0.0693
14,GAAGGCTA,inactive: -0.158
15,CTCCCGGA,inactive: -0.174
16,AAGATGCG,inactive: -0.0403
17,AACACGAA,inactive: 0.293
18,GACGTGTA,active: 0.344
19,CTGAGAAA,inactive: -0.0455
20,CTCTTTTC,inactive: -0.1
21,CTCCCCTC,inactive: -0.172
22,CACGACAA,inactive: 0.265
23,AAGTACAA,active: 0.327
